Among the data in the CheMixHub viscosity set are viscosity values, retold here.

± gives the uncertainty stated by the source. The source holds more than one record for some entries. The other results are left out here. The source may hold further records. Results that share an entry repeat one measurement in other runs, samples, wells, individuals or studies. A tag in brackets gives the origin of a value. Letters hold for one entry only.

Consider `COC(=O)CC(C)=O`, for which the viscosity reads like this: (298.15 K, 101.33 kPa) 1.564 ± 0.038 mPa·s, 1.566 ± 0.074 mPa·s [study A] and 1.568 ± 0.02 mPa·s, 1.568 ± 0.038 mPa·s [study B]; (303.15 K, 101.33 kPa) 1.421 ± 0.034 mPa·s, 1.422 ± 0.068 mPa·s, 1.421 ± 0.035 mPa·s [study A] and 1.427 ± 0.018 mPa·s, 1.427 ± 0.035 mPa·s [study B]; (308.15 K, 101.33 kPa) 1.298 ± 0.032 mPa·s, 1.298 ± 0.063 mPa·s [study A] and 1.304 ± 0.017 mPa·s, 1.304 ± 0.032 mPa·s [study B].

For the compound `OCC(O)CO`, the viscosity runs as follows: (298.15 K, 101 kPa) 909.8 ± 340 mPa·s [study A] and 905.6 ± 54 mPa·s [study B] and 706 ± 80 mPa·s [study C] and 938 ± 96 mPa·s [study D]; (303.15 K, 101 kPa) 589 ± 210 mPa·s [study A] and 612 ± 27 mPa·s [study B] and 520.6 ± 28 mPa·s [study C] and 492.1 ± 25 mPa·s [study D].

As for `CCOC(C)=O`, the viscosity by setting is: (293.15 K, 101 kPa) 0.46 ± 0.02 mPa·s [study A] and 0.45 ± 0.011 mPa·s [study B] and 0.454 ± 0.01 mPa·s [study C] and 0.4545 ± 0.012 mPa·s [study D]; (298.15 K, 101 kPa) 0.4244 ± 0.0041 mPa·s, 0.4244 ± 0.0017 mPa·s, 0.4236 ± 0.011 mPa·s, 0.434 ± 0.012 mPa·s, 0.424 ± 0.005 mPa·s, 0.4315 ± 0.011 mPa·s, 0.44 ± 0.01 mPa·s, 0.4193 ± 0.0038 mPa·s, 0.429 ± 0.011 mPa·s, 0.433 ± 0.037 mPa·s, 0.434 ± 0.006 mPa·s, 0.462 ± 0.006 mPa·s, 0.4637 ± 0.028 mPa·s, 0.42 ± 0.025 mPa·s [several studies]; (303.15 K, 100 kPa) 0.39 mPa·s [study A] and 0.3802 ± 0.0029 mPa·s [study B]; (303.15 K, 101 kPa) 0.409 ± 0.009 mPa·s, 0.4066 ± 0.011 mPa·s, 0.4104 ± 0.0048 mPa·s, 0.402 ± 0.004 mPa·s, 0.4104 ± 0.011 mPa·s, 0.38 ± 0.008 mPa·s, 0.41 ± 0.035 mPa·s, 0.4213 ± 0.018 mPa·s, 0.41 ± 0.02 mPa·s, 0.4306 ± 0.0093 mPa·s [several studies]; (303.15 K, 101.33 kPa) 0.41 ± 0.006 mPa·s [study A] and 0.407 ± 0.006 mPa·s [study B] and 0.437 ± 0.013 mPa·s [study C] and 0.407 ± 0.003 mPa·s [study D]; (308.15 K, 100 kPa) 0.38 mPa·s [study A] and 0.37 ± 0.07 mPa·s [study B]. The viscosity (308.15 K, 101 kPa) was 0.39 ± 0.033 mPa·s [study A] and 0.39 ± 0.02 mPa·s [study B] and 0.4272 ± 0.026 mPa·s [study C] and 0.4095 ± 0.0089 mPa·s [study D] and 0.41 ± 0.006 mPa·s [study E] and 0.384 ± 0.01 mPa·s [study F] and 0.368 ± 0.008 mPa·s [study G]; the viscosity (308.15 K, 101.33 kPa) is 0.39 ± 0.006 mPa·s [study A] and 0.421 ± 0.012 mPa·s [study B] and 0.385 ± 0.023 mPa·s, 0.385 ± 0.044 mPa·s [study C]; the viscosity (313.15 K, 100 kPa) is 0.36 mPa·s [study A] and 0.35 ± 0.07 mPa·s [study B]; the viscosity (313.15 K, 101 kPa) is 0.368 ± 0.009 mPa·s, 0.36 ± 0.004 mPa·s, 0.372 ± 0.008 mPa·s, 0.3657 ± 0.0098 mPa·s, 0.3689 ± 0.0099 mPa·s, 0.35 ± 0.007 mPa·s, 0.37 ± 0.02 mPa·s, 0.3879 ± 0.0084 mPa·s, 0.362 ± 0.022 mPa·s [several studies]; the viscosity (318.15 K, 100 kPa) was 0.35 mPa·s [study A] and 0.34 ± 0.07 mPa·s [study B]; the viscosity (318.15 K, 101 kPa) was 0.35 ± 0.02 mPa·s [study A] and 0.3973 ± 0.024 mPa·s [study B] and 0.353 ± 0.01 mPa·s [study C] and 0.334 ± 0.007 mPa·s [study D].

For the compound `CCOc1ccccc1`, the viscosity (298.15 K, 101 kPa) was 1.134 ± 0.051 mPa·s [study A] and 1.16 ± 0.05 mPa·s [study B] and 1.113 ± 0.011 mPa·s [study C] and 1.122 ± 0.03 mPa·s [study D].

As a reminder, the viscosity is the internal friction of a fluid under shear. Low values mean a thin fluid, high ones a thick fluid.
